The other results are listed elsewhere or left out. Antibody binding of pooled human sera (four to six donors per pool; dilution not stated) to peptides of the Trypanosoma cruzi antigen TSSA on microarrays. Quantile-normalised fluorescence in arbitrary units, mean of duplicate arrays; higher = more binding. No active / inactive call. The uninfected pools are read here as the healthy donors of the same country. The strongest signals lie near the top of the scale (about 60,000).
Legend:
Experiment in all cases: antibody binding signal (normalised fluorescence) (arbitrary fluorescence units); higher = stronger serum antibody binding to peptide
[1] = tested on: pooled sera of chronic Chagas disease patients, Bolivia
Description: (§1)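 Microarray of 15-residue peptides over residues 30-55 of Trypanosoma cruzi TSSAII, each with 1 to 10 substitutions at naturally variable positions, probed with one serum pool per country.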

[2] = tested on: pooled sera of chronic Chagas disease patients, Brazil
Description: as §1

[3] = tested on: pooled sera of chronic Chagas disease patients, Colombia
Description: as §1

[4] = tested on: pooled sera of chronic Chagas disease patients, Mexico
Description: as §1

[5] = tested on: pooled sera of chronic Chagas disease patients, USA
Description: as §1

[6] = tested on: pooled sera of uninfected people, Argentina
Description: as §1

[7] = tested on: pooled sera of uninfected people, Bolivia
Description: as §1

[8] = tested on: pooled sera of uninfected people, Brazil
Description: as §1

[9] = tested on: pooled sera of uninfected people, Colombia
Description: as §1

[10] = tested on: pooled sera of uninfected people, Mexico
Description: as §1

[11] = tested on: pooled sera of uninfected people, USA
Description: as §1

Sequence	antibody binding signal [1]	antibody binding signal [2]	antibody binding signal [3]	antibody binding signal [4]	antibody binding signal [5]	antibody binding signal [6]	antibody binding signal [7]	antibody binding signal [8]	antibody binding signal [9]	antibody binding signal [10]	antibody binding signal [11]
TEKKPAAGGAPSQSG	181	488	4780	572	1290	187	187	651	142	207	1270
KAAAGGTPSQSGASS	214	414	4280	321	790	280	147	599	177	649	232
KDKKAAAGGAPSPSG	234	191	2070	438	292	123	89.6	106	117	87.2	102
PSGKEKKPATGGAPS	7290	9290	17700	17000	8640	473	826	123	175	109	229
GKEKKAAAGGTPSQS	176	233	1780	2130	2000	108	75.1	544	106	107	77.2
KDKKPAAGETPSQSG	194	1480	176	146	353	97.2	88.4	108	149	73.5	73.3
TENKTATGGTPSPSG	1270	551	381	423	821	254	171	437	583	514	202
PPSGKDNKPAAGGAP	1680	15500	1360	12500	10400	821	907	174	293	172	488
DNKPATGEAPSPPGA	52000	50600	305	184	39500	827	376	365	146	220	172
SGKENKAATGGAPSQ	683	18700	6270	4380	17600	7780	1900	101	337	238	240
TISTPPSGKEKKPAA	317	627	266	33000	441	940	622	204	321	111	259
TEKKPAAGETPSQSG	246	6350	365	398	2030	97.8	271	309	762	320	862
KKAAAGETPSPSGAS	253	471	228	162	1180	257	159	92	85.4	88.8	250
GKDKKAAAGGTPSQP	302	257	1870	724	1390	231	84.8	435	108	175	102
EKKAATGGTPSQPGA	820	1050	2570	1450	1330	446	724	903	1100	600	733
TEKKPAAGGTPSQPG	200	639	6640	476	1860	276	192	1710	221	495	1390
SGTDKKTATGGAPSP	331	1900	6900	1330	1540	399	207	118	164	424	195
GKDNKTATGGAPSPP	357	316	2560	1520	1440	289	165	214	179	136	163
STPPSGTDKKAAAGG	5340	34600	6330	45900	9410	930	163	183	204	1440	291
TENKAAAGETPSPPG	371	11900	213	241	2600	92.5	182	126	83.8	142	1050
GKDNKAATGGTPSPS	415	894	1920	2550	2000	142	246	196	198	89.2	81.7
SGKDNKPAAGGTPSQ	312	5030	1800	1070	1100	363	546	606	746	252	125
GTENKPATGGTPSPP	4680	6200	890	2210	1500	424	1550	644	429	261	162
NKTAAGETPSPSGAS	780	2730	375	966	1580	484	905	617	326	265	1330
SGKDNKAAAGETPSP	459	4810	1970	1220	1870	230	369	126	608	113	540
PPSGKEKKPAAGETP	664	2640	1450	9890	2830	531	830	131	365	85.1	329
EKKAATGGTPSPSGA	593	494	2390	833	1340	342	740	833	1090	150	593

Sequence	antibody binding signal [1]	antibody binding signal [2]	antibody binding signal [3]	antibody binding signal [4]	antibody binding signal [5]	antibody binding signal [6]	antibody binding signal [7]	antibody binding signal [8]	antibody binding signal [9]	antibody binding signal [10]	antibody binding signal [11]
KENKAAAGGTPSQSG	199	223	947	167	806	140	90.3	360	129	108	144
TEKKPAAGGAPSPPG	289	438	5520	664	1860	260	225	779	149	346	1110
SSTPPSGTENKPAAG	54100	54300	419	11300	47300	9010	1670	862	984	894	1120
TDNKTATGETPSQPG	3590	34700	250	179	6750	126	533	383	246	143	237
KDNKPAAGGAPSQSG	245	1550	510	215	265	221	187	131	152	137	136
TDKKTAAGGTPSPPG	224	178	10500	424	1800	82.5	103	1010	334	228	129
KKAATGEAPSQPGAS	6380	36600	170	145	19200	365	182	95	238	84.4	279
EKKTAAGGTPSQSGA	963	236	11000	489	1840	276	942	1630	155	502	768
PSGTDKKAATGGAPS	264	4610	4320	2360	1900	386	510	200	430	600	221
SSTPPSGTENKAATG	49900	54700	438	4010	34100	4230	671	481	764	409	717
PSGTEKKTAAGGTPS	803	2500	15600	8550	6140	360	244	525	350	542	534
GKDKKAAAGGAPSPP	195	158	1670	435	567	122	80.5	102	102	93	81.9
DNKPAAGGAPSQPGA	1560	22200	1520	311	486	262	388	512	300	490	244
EKKAAAGEAPSQPGA	7650	39500	866	301	7140	154	1150	122	129	252	1110
PPSGKEKKPATGGTP	373	1590	1380	5150	3490	433	753	188	280	102	217
PPSGKEKKPAAGGAP	798	1620	2800	7080	2450	508	433	142	230	124	242
SGKENKTAAGGAPSQ	532	19200	10200	4700	21300	5600	785	153	305	331	221
GTDNKAATGEAPSPS	38600	39100	265	356	30200	141	556	1180	114	120	88.2
PPSGKEKKAATGETP	627	2680	2590	4690	8070	689	649	111	441	85.1	223
TDNKTAAGETPSPSG	346	599	248	328	1890	156	355	245	136	273	2130
GTDNKPAAGGTPSPP	255	41600	1770	277	247	201	812	1130	563	440	135
KKAAAGETPSQPGAS	1170	24500	197	120	1220	206	182	88.4	181	89	251
GTEKKPAAGGAPSQP	247	3800	4400	2040	1450	150	761	776	112	252	1620
KDNKTATGETPSPSG	318	1310	2190	240	6910	545	278	207	279	251	2730
TPPSGTDKKTAAGET	11700	26700	1970	37600	1450	228	239	315	1490	628	155
PPSGKENKTAAGEAP	8280	5630	1390	1690	5620	2570	1790	333	870	370	331
TPPSGTDKKAAAGEA	17300	33400	5360	23900	2610	478	307	434	339	2600	201
